Read counts are not given, so values of variants with three or more changes are uncertain.
B1: LINE1-mini (parent)
chain: GGCAGAGCUCAACACAGCGUGGCAAAGUGGCUGUGGCUAGACUGCC

Variants of: B1
Assay: self-cleavage, relative activity (ratio to wild type); higher = more cleavage; in vitro, sequencing; the parent is a self-cleaving ribozyme

Variant	self-cleavage
C15A G17U G40U	0.14
C8A A11C A16C G22A A25G G29U U32A A41G	0
C15A G27A U28G A39U	0.03
A6C C15G G21A A25U U32C G44C	0.02
G1A C18G C23A	0.14
G7C A11G A25U U38C	0.01
A14C C18G G30A	0.14
A6U C8A U20A G21U	0.06
C3G U9A A39U	0.02
G1A G5A A11C	0.06
C23A C37A A39G	0.02
G1U C13U C31A	0.05
G22A C23A C37A	0.01
C15U A16C C46G	0.05
A12G U20G G33U U38A A39U	0.03
C15U G29U U38A G44A	0.3
U9G G22U G30U	0.03
C3G G19A A24C	0.02
C3A A6G C15G	0.07
G7A G17U G21A C23G	0.25
C3A G5U A26U	0.48
A12G C13G G17A U28G G29U G36A	0.01
G2U U9G C10U C18U	0.02
G5C A12U G19U G29A G40A	0.01

Variant	self-cleavage
A11U U32G U34C G36C G40A	0.02
A6G G17C U38C C46A	0
A6G U9C U20G A41G	0
G5U C8G A41U	0.04
U9A G27C U38G G40U	0.12
A12G C45A C46A	0.05
G1A G2U G22C A25C U38C	0.04
G7A G19C G22U U38A	0.03
U9A A14C A26U	0.04
C10A A16U G19A U32A	0.02
A11U G22A G27U C31U U34G	0
C13G A14U G19U G36C	0.02
G30U C45U C46A	0.12
A6C G19C A39G	0.13
C8U C23G A39U G40C	0.09
U9G C10U A26C G36U	0.01
G1A C13G C42U	0.07
A4G C13G G22U	0.06
U9G C15A U34A G40C C46A	0.02
C10A A12G A16C	0.05
A11U A16G G29A G30A G33A	0.01
C13A C31G U32G	0.01
G5C A6G C23U	0.12
G1A U20C A25U C31U A41U	0.04

Variant	self-cleavage
G1U A4U C18A G19C G21C G27C	0.04
C3U C13G C23A G29U C37U	0.36
A14U C18A G19U U38G C45U	0.03
G7U C15A U20G	0.01
C18U G36U G40C	0.11
G1C A24U G33C G35U G40U G44U	0
G7U U28A A39G G44U	0.15
C13A A41G U43A	0.03
A11U G22U U43C	0.04
A14U A24G G35C C46U	0.05
C8U A11U C13U C31A U43G G44A	0.03
G1C C10G A26U	0.01
C3A G7U A26G A41U	0.38
A11U U20G A25U	0.07
A6G U20A G33A U38A	0.03
A4U U9C G22U U32G	0
G1A A6C U9G A24U G40U	0.1
G1U C15A G30U	0.05
A4G G5C A39G C46A	0.02
C10A A16U G22U G30U	0.02
C31U U32A C37A U38A A41G	0.06
C15A G40U G44U	0.02
A14C C18A A41U	0.09
A14C A16G G17U U28G	0.03

Variant	self-cleavage
G5C C15G G29A	0.07
G22U C37A A39U	0.11
G7A A11U C13G G35A U38G	0.01
G2C A6U C23U A41G	0.19
C10A U34A G40C	0.02
A16G U20C G21U G40C C46U	0.02
A4C A24U G35A C46U	0.04
G7U A16U U34G C45U	0.56
G5U C13A U20G C23U	0.01
A11C U32C G40U	0.02
G1U G17A G22C C42G	0.05
A12U A26G G40U G44C	0.03
A11G A16U G19U A41U	0.01
A11G U34A C46U	0.02
G1A U9C A16U	0.01
A14C G19U G29U G33A	0.06
G1C C10U A26C C37A	0
G1A U34C G35A	0.02
A4G C23G G27U C45U	0.12
C10U A14G G22U U32A	0.01
C3G A11G A12U G35A A41G	0
C18U G30C G40U	0.03
G2C G5A G19C G21U G40C	0.01
G7A C10G C13A G44U	0.02

Variant	self-cleavage
U20G G40U U43A	0.01
C13A G17C C31A	0.05
C10G G21C G35C G36A	0.01
G7C C8A A12C C18A U34G	0.03
C8A C15A G21A U43C	0.56
C3G G22C C31G G33C G44U C46G	0.06
G5U U9G C13A U32G U34G	0.03
A25G G33U C42A	0.04
C10U A26C U32G G35A C45G	0.02
G5A A11U C13A	0
A14U G19A G22U G29C	0.27
U9G G17A G40A	0.17
A14G C15A G17U G21U	0.08
C10G C15U G17A C18A A26U U28G U32A	0.01
G19A A26G G40U	0.06
A14G G27U U38C	0.03
A4C A14C A25C U32G	0.01
A6C C15G G22C C23A	0.03
A4C C8G A12C G21U C37A	0.02
A12U C13U G19C U28G G30A	0.06
G1U G36U G44A C45U	0
G5U A11U U43A	0.01
A6U U9G G29C G30A	0.11
G17C G27C G30A U32G	0.04

Variant	self-cleavage
C3U C8U C13U G35A G44A	0.21
A16U U20A A39U	0.02
G19A A25G G27A G29C U34A C37G	0.04
C18G C45A C46G	0.02
G1A G2A A4U C10U A14G	0.28
C8U G29U G36U C46U	0.14
C10A A11U C13U A39G	0.03
C8A U9A C18A G22U G29U G30C G44U	0.18
G22U C23U A26G	0.94
A6G G17A U20A G33C	0.03
G7A U9C G35C	0.04
U20C U43A C46U	0.01
C3G G19C G27A C46G	0.05
C3U G21A G22A	0.2
C10U A24C A41G	0.01
U9A U20C A24U A41G C46A	0.04
C8A A14U A16G C18U	0.09
A24U U38C A39U C42U	0.08
G27U G29U G30A U34G	0.39
A11G G27C U28C G40A	0.01
G5U G21U U32C	0.24
C3G C10A G17C	0.09
G5A U9G G22U G35A G36U A39U	0.04
C13G G27U C45U	0.24

Variant	self-cleavage
A4G G22C C37G A41U C42A	0.15
G2A U9G G17C	0.36
G7C A11U C15U A25G G29C G33C	0.01
G2C C10U G35C G40U A41C U43G	0.02
G7U C10G G17U C18A A26G	0.03
G7A U20G G29U	0.07
G22U C31A U32G U34G	0.08
G17C C23A G35C C45G	0.11
G1C G5A C23A U32G C37U G40U	0.03
C8G C15A G29C U34A	0.01
G21A A25G C42A G44C C45G	0.08
G5A U20G G36U A41C	0.26
C15A C31U G40A	0.04
G2U U32C G33C	0.03
C8A G17U C18U A41U C42G	0.1
A4C C13G U43G G44U	0.16
G22U A26G U38G	0.02
A6G G7A G21U A26C G35C	0.1
C3U G22U G29C C46G	0.85
C23U G29A C46A	0.28
C8G A11C A16C G27C C31A	0
C10G A12U U28G U32G	0.04
G33U U38G C46G	0.01

Source: the RNAGym collection of RNA variant scans (doi:10.7554/elife.90254)
